No constants are given. Whether binding was seen depends on the method and setting. In cells and extracts the contact can be indirect. Some binding calls cover weakened binding; strength is not graded here.

By UniProt entry, the sequences of proteins in these tests, tags left out. Where a name states a change or a piece, a line headed by the entry shows the natural chain unless it says otherwise.
UniProt Q96J87: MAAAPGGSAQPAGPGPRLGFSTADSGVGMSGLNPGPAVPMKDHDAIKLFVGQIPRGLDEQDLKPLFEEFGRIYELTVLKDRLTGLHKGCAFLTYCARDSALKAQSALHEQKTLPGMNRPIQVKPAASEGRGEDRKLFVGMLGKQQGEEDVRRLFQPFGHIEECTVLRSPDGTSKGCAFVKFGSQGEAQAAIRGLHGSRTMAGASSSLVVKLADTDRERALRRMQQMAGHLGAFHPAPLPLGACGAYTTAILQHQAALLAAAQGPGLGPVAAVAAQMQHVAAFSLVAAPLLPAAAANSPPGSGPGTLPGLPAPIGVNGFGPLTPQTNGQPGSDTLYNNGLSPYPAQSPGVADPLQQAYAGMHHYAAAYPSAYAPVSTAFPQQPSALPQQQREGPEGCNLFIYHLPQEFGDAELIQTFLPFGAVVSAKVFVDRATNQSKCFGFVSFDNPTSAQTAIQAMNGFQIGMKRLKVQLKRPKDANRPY
UniProt Q9Y297: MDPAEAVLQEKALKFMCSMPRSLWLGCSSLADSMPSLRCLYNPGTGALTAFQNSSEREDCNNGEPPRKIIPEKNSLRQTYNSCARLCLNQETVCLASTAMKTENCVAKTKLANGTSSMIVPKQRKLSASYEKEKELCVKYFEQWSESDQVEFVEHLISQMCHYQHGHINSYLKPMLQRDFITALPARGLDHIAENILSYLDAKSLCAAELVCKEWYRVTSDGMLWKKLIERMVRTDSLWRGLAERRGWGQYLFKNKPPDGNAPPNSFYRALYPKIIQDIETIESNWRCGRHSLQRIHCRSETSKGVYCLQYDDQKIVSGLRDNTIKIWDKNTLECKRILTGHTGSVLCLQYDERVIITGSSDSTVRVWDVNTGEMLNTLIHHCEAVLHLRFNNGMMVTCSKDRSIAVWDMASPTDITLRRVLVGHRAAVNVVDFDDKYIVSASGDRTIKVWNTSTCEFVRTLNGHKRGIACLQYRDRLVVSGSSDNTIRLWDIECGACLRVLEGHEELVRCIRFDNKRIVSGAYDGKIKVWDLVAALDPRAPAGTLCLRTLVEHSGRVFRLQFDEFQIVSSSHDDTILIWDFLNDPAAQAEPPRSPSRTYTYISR

In one experiment the target is GFP-CELF6 (human) (UniProt Q96J87). Briefly: co-IP; HEK293 cells co-transfected with tagged CELF6 and Flag-β-TrCP; lysis buffer 20 mM Tris, 150 mM NaCl, 1 mM EDTA, 1 mM EGTA, 1% NP-40; lysates incubated 1 h with antibody (anti-GFP, anti-His or anti-Flag) on protein G beads, washed three times with PBS/T; immunoblotting.
Flag-β-TrCP (from UniProt Q9Y297 1-605): the binding entry is reported as “binds”.

The next experiment concerns the target Flag-β-TrCP (UniProt Q9Y297). The experiment is described as above.
In the case of GFP-CELF6 (from UniProt Q96J87 1-481), the binding result is “binds”.

For His-CELF6 (from UniProt Q96J87 1-481), the binding result is given as “binds”.

For the substance “His-CELF6 D24A/S25A/G26A/S30A (from UniProt Q96J87 1-481)”, the binding result is on record as “binds”.

On to “His-CELF6 NΔ35 (from UniProt Q96J87 36-481) (domain or fragment)”, for which the binding result was “binds”.

Take “His-CELF6 NΔ112 (from UniProt Q96J87 113-481) (domain or fragment)”: the binding entry is “binds”.

For the substance “His-CELF6 NΔ224 (from UniProt Q96J87 225-481) (domain or fragment)”, the binding result is recorded as “binds”.

As for “His-CELF6 NΔ287 (from UniProt Q96J87 288-481) (domain or fragment)”, the binding result was “no binding”.

For “His-CELF6 S25A/S30A (from UniProt Q96J87 1-481)”, the binding entry was “binds”.

Take “His-CELF6 S99A/S105A (from UniProt Q96J87 1-481)”: the binding result was “binds”.

The next experiment deals with His-CELF6 (human) (UniProt Q96J87). The experiment is described as above.
In the case of Flag-β-TrCP (from UniProt Q9Y297 1-605), the binding entry is “binds”.

For the next experiment, the target named is Flag-β-TrCP (UniProt Q9Y297). Description: co-IP; HEK293 cells transfected with Flag-β-TrCP and His-CELF6; cell extracts treated with λPPase before immunoprecipitation and immunoblotting.
For His-CELF6 (from UniProt Q96J87 1-481), the binding entry is recorded as “binds”.

Values taken from article PMC6751195.
